# Article PMC5700166
# The entries are a selection whose mix differs from that of the whole data set. The list includes weakly bound sequences.
# Tests used:
# Experiment in all cases: protein-binding microarray (PBM)
# Conditions in all cases: PBM: ~300 nM protein, 6 mM HEPES pH 7.8, 80 mM KCl, 0.5 mM EDTA, 0.5 mM EGTA, 6% glycerol, 35 ng/ul poly-dIdC, 1% milk, 1 h, room temperature; Ap Aiptasia and Nv Nematostella (sea anemones) / Co Capsaspora / Aq Amphimedon (sponge) / Dm Drosophila / Hu human; RHD is the Rel homology domain; high values mean tight binding; most listed sequences are background and not binding sites; double strand, one strand shown
# [1] = molecular target: T1, GST-Nv-NF-kB (Cys allele) (UniProt E5G601)
# T1 sequence: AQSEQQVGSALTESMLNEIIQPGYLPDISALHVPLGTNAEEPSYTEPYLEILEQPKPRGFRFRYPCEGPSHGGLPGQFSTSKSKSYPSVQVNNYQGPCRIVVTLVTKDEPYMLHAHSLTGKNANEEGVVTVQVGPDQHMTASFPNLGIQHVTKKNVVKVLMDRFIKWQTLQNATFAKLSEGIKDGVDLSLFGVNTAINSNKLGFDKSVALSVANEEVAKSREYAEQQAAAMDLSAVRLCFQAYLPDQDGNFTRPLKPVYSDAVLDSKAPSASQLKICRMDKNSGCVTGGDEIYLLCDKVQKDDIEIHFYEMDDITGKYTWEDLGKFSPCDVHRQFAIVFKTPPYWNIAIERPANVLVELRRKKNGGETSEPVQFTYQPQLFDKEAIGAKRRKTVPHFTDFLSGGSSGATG
# GST-Co-NF-kB = molecular target: T2, GST-Co-NF-kB (UniProt F1ARL5)
# T2 sequence: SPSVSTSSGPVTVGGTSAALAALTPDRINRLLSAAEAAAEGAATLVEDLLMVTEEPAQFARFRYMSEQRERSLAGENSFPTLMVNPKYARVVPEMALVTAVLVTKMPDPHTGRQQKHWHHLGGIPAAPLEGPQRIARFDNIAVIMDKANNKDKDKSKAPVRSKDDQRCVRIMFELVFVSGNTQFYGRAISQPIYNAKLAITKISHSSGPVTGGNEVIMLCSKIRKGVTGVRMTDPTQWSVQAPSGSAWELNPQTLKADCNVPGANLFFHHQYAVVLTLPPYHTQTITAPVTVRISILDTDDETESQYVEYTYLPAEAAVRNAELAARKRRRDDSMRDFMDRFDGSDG
# GST-Aq-NF-kB = molecular target: T3, GST-Aq-NF-kB (UniProt A9Y5G7)
# T3 sequence: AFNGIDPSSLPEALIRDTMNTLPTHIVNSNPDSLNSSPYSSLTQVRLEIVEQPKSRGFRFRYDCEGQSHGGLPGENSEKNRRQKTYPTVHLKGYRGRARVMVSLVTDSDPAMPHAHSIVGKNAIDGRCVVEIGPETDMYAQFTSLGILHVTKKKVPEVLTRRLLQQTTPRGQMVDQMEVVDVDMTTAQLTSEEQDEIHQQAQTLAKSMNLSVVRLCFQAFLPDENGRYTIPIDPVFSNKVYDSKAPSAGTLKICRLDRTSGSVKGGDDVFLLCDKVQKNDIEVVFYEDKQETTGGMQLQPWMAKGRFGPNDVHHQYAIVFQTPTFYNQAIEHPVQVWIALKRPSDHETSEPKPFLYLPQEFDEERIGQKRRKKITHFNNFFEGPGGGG
# GST-Dm-Relish = molecular target: T4, GST-Dm-Relish (UniProt Q94527)
# T4 sequence: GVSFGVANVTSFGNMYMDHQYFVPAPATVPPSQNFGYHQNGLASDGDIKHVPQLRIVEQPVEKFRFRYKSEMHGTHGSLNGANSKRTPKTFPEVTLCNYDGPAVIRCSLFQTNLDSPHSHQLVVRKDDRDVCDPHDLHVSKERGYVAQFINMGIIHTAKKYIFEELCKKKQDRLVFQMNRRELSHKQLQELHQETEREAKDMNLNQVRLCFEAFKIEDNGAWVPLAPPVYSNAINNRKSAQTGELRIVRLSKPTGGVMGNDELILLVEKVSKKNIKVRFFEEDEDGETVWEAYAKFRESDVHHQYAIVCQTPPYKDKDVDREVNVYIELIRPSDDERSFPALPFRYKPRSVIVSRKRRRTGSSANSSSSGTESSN
Sequence,binding signal [1],binding signal (GST-Co-NF-kB),binding signal (GST-Aq-NF-kB),binding signal (GST-Dm-Relish)
CCGATTAACATCAGGAAATCCCATGATGTTAATCGGGTCTTGATTCGCTTGACGCTGCTG,3.68 z-score,1.17 z-score,5.09 z-score,–
CCGATTAACATCACACTTTTCCCTGATGTTAATCGGGTCTTGATTCGCTTGACGCTGCTG,4.45 z-score,4.46 z-score,3.57 z-score,–
CCGATTAACATCAAGGGAGTTCCTGATGTTAATCGGGTCTTGATTCGCTTGACGCTGCTG,4.56 z-score,1.22 z-score,5.71 z-score,–
CCGATTAACATCAGTATGGGAAATGATGTTAATCGGGTCTTGATTCGCTTGACGCTGCTG,2.39 z-score,–,1.79 z-score,0.377 z-score
CCGATTAACATCAGGGATTTCACTGATGTTAATCGGGTCTTGATTCGCTTGACGCTGCTG,2.33 z-score,0.654 z-score,4.19 z-score,6.3 z-score
CCGATTAACATCACTGGGAGGGCTGATGTTAATCGGGTCTTGATTCGCTTGACGCTGCTG,0.798 z-score,1.47 z-score,0.363 z-score,0.933 z-score
CCGATTAACATCAACTATCCCCCTGATGTTAATCGGGTCTTGATTCGCTTGACGCTGCTG,4.03 z-score,–,4.04 z-score,2.98 z-score
CCGATTAACATCAATTTTTTCCCTGATGTTAATCGGGTCTTGATTCGCTTGACGCTGCTG,5.88 z-score,–,4.16 z-score,2.71 z-score
CCGATTAACATCAGGCGATTCCCTGATGTTAATCGGGTCTTGATTCGCTTGACGCTGCTG,2.99 z-score,–,3.88 z-score,2.34 z-score
CCGATTAACATCAAGGGGTTCCCTGATGTTAATCGGGTCTTGATTCGCTTGACGCTGCTG,3.32 z-score,–,5.11 z-score,9.46 z-score
CCGATTAACATCAGGAATCCCACTGATGTTAATCGGGTCTTGATTCGCTTGACGCTGCTG,1.37 z-score,0.956 z-score,1.75 z-score,8.1 z-score
CCGATTAACATCATGGGGGGTAATGATGTTAATCGGGTCTTGATTCGCTTGACGCTGCTG,3.18 z-score,–,3.56 z-score,2.79 z-score
CCGATTAACATCACGAATTCCCCTGATGTTAATCGGGTCTTGATTCGCTTGACGCTGCTG,10.1 z-score,7.11 z-score,6.73 z-score,6.96 z-score
